The supplement of paper PMC4967469

Assays:
Assay in all cases: Viability of human cancer cell lines after 72 h of drug (GDSC screen)
PI-103 = compound: Oc1cccc(-c2nc(N3CCOCC3)c3oc4ncccc4c3n2)c1 [PI-103]; settings: top dose 10.24 µM
Experimental: (§1)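 Human cancer cell lines in 384-well plates, medium with 10% serum, drug for 72 h over a 256-fold dose range (nine 2-fold or five 4-fold steps up to the top dose). Adherent lines were fixed and stained with the nucleic acid dye Syto60, suspension lines read with resazurin; signal relative to control wells, capped at 0 and 100%. One two-parameter sigmoid per drug and line, fitted in a mixed model over all curves with the slope shared within a line.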

Tretinoin = compound: CC1=C(/C=C/C(C)=C/C=C/C(C)=C/C(=O)O)C(C)(C)CCC1 [Tretinoin]; settings: top dose 10 µM; top dose inferred
Experimental: as §1

UNC0638 = compound: COc1cc2c(NC3CCN(C(C)C)CC3)nc(C3CCCCC3)nc2cc1OCCCN1CCCC1 [UNC0638]
Experimental: as §1

SB-505124 = compound: Cc1cccc(-c2[nH]c(C(C)(C)C)nc2-c2ccc3c(c2)OCO3)n1 [SB-505124]; settings: top dose 10 µM; top dose inferred
Experimental: as §1

GSK690693 = compound: CCn1c(-c2nonc2N)nc2c(C#CC(C)(C)O)ncc(OC[C@H]3CCCNC3)c21 [GSK690693]; settings: top dose 10.24 µM; top dose inferred
Experimental: as §1

[1] = top dose 20 µM, screen: GDSC drug entry 1236, top dose inferred
[2] = top dose 40 µM, screen: GDSC drug entry 245

Row | Cell Line | AUC (PI-103) | pIC50 (PI-103) | AUC (Tretinoin) | pIC50 (Tretinoin) | AUC (UNC0638; [1]) | pIC50 (UNC0638; [1]) | AUC (UNC0638; [2]) | pIC50 (UNC0638; [2]) | AUC (SB-505124) | pIC50 (SB-505124) | AUC (GSK690693) | pIC50 (GSK690693)
1 | A2058 (melanoma, adherent) | 0.702 | 5.66 | 0.93 | < 5.00 | 0.843 | 4.92 | 0.889 | 4.43 | 0.971 | < 5.00 | 0.967 | < 4.99
2 | ABC-1 (lung adenocarcinoma, adherent) | 0.47 | 6.28 | 0.983 | < 5.00 | 0.98 | < 4.70 | 0.981 | < 4.40 | 0.966 | < 5.00 | 0.821 | 5.12
3 | ACHN (kidney, adherent) | 0.631 | 5.81 | 0.932 | < 5.00 | 0.876 | < 4.70 | 0.86 | < 4.40 | 0.98 | < 5.00 | 0.959 | < 4.99
4 | AN3-CA (endometrium, adherent) | 0.336 | 6.67 | 0.972 | < 5.00 | 0.983 | < 4.70 | 0.98 | < 4.40 | 0.964 | < 5.00 | 0.891 | < 4.99
5 | CAKI-1 (kidney, adherent) | 0.691 | 5.54 | 0.852 | < 5.00 | 0.863 | < 4.70 | 0.837 | < 4.40 | 0.973 | < 5.00 | 0.953 | < 4.99
6 | CFPAC-1 (pancreas, adherent) | – | – | 0.931 | < 5.00 | – | – | – | – | 0.982 | < 5.00 | 0.976 | < 4.99
7 | DMS-53 (small cell lung carcinoma, adherent) | 0.982 | < 4.99 | 0.988 | < 5.00 | 0.868 | < 4.70 | 0.987 | < 4.40 | 0.951 | < 5.00 | 0.988 | < 4.99
8 | Daoy (medulloblastoma, adherent) | 0.441 | 6.35 | 0.933 | < 5.00 | 0.815 | 5.01 | 0.719 | 5.01 | 0.98 | < 5.00 | 0.909 | < 4.99
9 | EFM-19 (breast, adherent) | 0.657 | 5.66 | 0.918 | < 5.00 | 0.833 | < 4.70 | 0.783 | 4.57 | 0.936 | < 5.00 | 0.855 | < 4.99
10 | EPLC-272H (lung squamous cell carcinoma, adherent) | 0.385 | 6.53 | 0.983 | < 5.00 | 0.783 | 5.02 | 0.584 | 5.36 | 0.978 | < 5.00 | 0.906 | < 4.99
11 | G-MEL (melanoma, adherent) | 0.557 | 6.04 | 0.861 | 5.08 | 0.807 | 4.99 | 0.905 | < 4.40 | 0.767 | 5.43 | 0.983 | < 4.99

pIC50: −log10 of the molar value. A lower IC50 marks a more sensitive line; fits outside the tested doses are given as limits. The AUC spans the tested range (256-fold, ending at the top dose) of the same fit; values near 1 show little effect. For part of these data: The top dose, if marked as inferred, was derived from the fitted curves, not read from the paper. For part of these data: Where an entry number is given, a second screen of the drug exists; the two often differ.
